Screen size: about 150,000 compounds; about 540 (0.36%) showed an effect of 50% or more. Some of the results follow.

Broadly, the % Inhibition is the change of the read-out against control, counted positive when it falls.

The subject of the experiment is Plasmodium falciparum. The experiment in a line: Primary screen in NF54 nanoGlo assay, in single point, at 2uM, 72h; a lower Z score goes with more inhibition. The following applies: timepoint 72 hour. The format is functional, Erythrocyte.
Take `Cc1cc(NCCCc2ncnn2C)nc(C)n1`: the “% Inhibition” value was -10% and the Z score is on record as 1.66.

Take `CNC(=O)C(C)(C)CN[C@H]1CCCc2ccc(OC)c(Cl)c21`: the “% Inhibition” value is reported as -4% and the Z score was determined as 0.49.

On to `CC(C)(C)C1CCC(OC[C@@H](O)CN2CCCC2)CC1` (some centres undefined), for which the “% Inhibition” value is on record as -8% and the Z score was determined as 1.12.

In the case of `Cc1cn2nc(C(=O)Nc3ccc4c(c3)OCCO4)cc2c(N(C)Cc2ccccc2)n1`, the “% Inhibition” value was determined as 16% and the Z score was -3.07.

For `CC(C(=O)N1CCOCC1C1CCCCC1O)c1cncnc1` (centres undefined), the “% Inhibition” value amounted to 2% and the Z score is on record as -0.41.

Consider `Cc1n[nH]c(C)c1CC(=O)Nc1c(C)n(C)n(C2CCCCC2)c1=O`, for which the “% Inhibition” value is -16% and the Z score was 2.13.

With `Cn1ncc2c(=O)n(CC3CC3)cnc21`, the “% Inhibition” value is given as -7% and the Z score worked out at 0.97.

`Cc1cc(C)nc(CN(C)c2nc(N)nc(C)c2CCC(=O)O)c1`: the “% Inhibition” value was -11% and the Z score was 1.77.

Take `O=C(c1ccc2nsnc2c1)N1C2CCC1CC(n1cccn1)C2` (centres undefined): the “% Inhibition” value is -11% and the Z score is 1.46.

Regarding `CCCc1[nH]ccc1C(=O)N1CCN(C(=O)c2ccccc2)CC1`, the “% Inhibition” value was -11% and the Z score was found to be 1.44.

As for `Cc1ccc2ncc(CNc3nnc(C(C)C)o3)n2c1`, the “% Inhibition” value is -11% and the Z score came to 1.6.

For `CCn1c(=O)c(N2CCC(NC(=O)Nc3ccccc3C)CC2)nc2ccccc21`, the “% Inhibition” value is -19% and the Z score is recorded as 2.33.

Regarding `Cc1cc(N)n(CC(=O)N2CC[C@@]3(CCCN(CC4CC4)C3=O)C2)n1`, the “% Inhibition” value is reported as -7% and the Z score is reported as 1.56.

Consider `Cc1ccc(S(=O)(=O)NCc2ccc(N3CCC[C@H](C)C3)cc2)cc1`, for which the “% Inhibition” value is listed as -12% and the Z score is 1.04.

For `CCCC(CCC)C(=O)N1C[C@H]2CC(=O)NCCN(C)C(=O)c3cccc(OC)c3OCc3cn(nn3)[C@H]2C1`, the “% Inhibition” value is listed as -3% and the Z score is on record as 0.41.

For `c1ccc(Cn2nncc2CN2CCC(OC3CCC3)CC2)cc1`, the “% Inhibition” value is 9% and the Z score was -1.21.

As for `Nc1nc(N2CCN(CCOc3ccccc3)CC2)cc([C@H]2C[C@@H](O)C2)n1`, the “% Inhibition” value is -10% and the Z score is reported as 1.2.

For the compound `Cn1cccc1C(=O)N1CCN(c2cc(C(F)(F)F)ncn2)CC1`, the “% Inhibition” value is listed as -14% and the Z score was 1.83.

As to `Cc1csc(CN(C)c2ccc(C(=O)Nc3nncs3)cn2)n1`, the “% Inhibition” value was determined as 10% and the Z score is -1.2.

`COc1ccc(OC)c([C@@H]2c3ccc(O)cc3Oc3nc(N)c(C#N)c(N)c32)c1`: the “% Inhibition” value came out at 10% and the Z score was -1.24.

`COC(=O)[C@H](C)Oc1ccc(Oc2nc(N(C)C)nc(N3CCCC3)n2)nn1`: the “% Inhibition” value came out at 8% and the Z score was -0.89.

In the case of `CC[C@@H](c1cccc(OC)c1)N(C)Cc1cnc2nc(C)cc(C)n12`, the “% Inhibition” value was -11% and the Z score was found to be 1.79.

On to `O=C(c1ccco1)N1CCN(c2nc(Nc3ccc(F)cc3)c3nn[nH]c3n2)CC1`, for which the “% Inhibition” value was -13% and the Z score is 2.02.

For `COc1cc(Cl)c(C)cc1NC(=O)CN(C)Cc1cnn(C)c1`, the “% Inhibition” value was determined as 3% and the Z score is -0.54.

As to `C[C@H](NC(=O)c1cccc2ccccc12)C1CC1`, the “% Inhibition” value is on record as -16% and the Z score came out at 2.25.

For `Cc1nc2c(c(=O)n1C)CN(Cc1[nH]c3ccccc3c1Cl)C2`, the “% Inhibition” value was -9% and the Z score is given as 1.75.

Take `O=C(OC1CCS(=O)(=O)C1)c1cccc(NC(=O)C2Cc3ccccc3O2)c1` (centres undefined): the “% Inhibition” value is given as -8% and the Z score is recorded as 1.32.

For `CC(C)[C@H](NCc1nnc(C2CC2)n1C)C1(CO)CCCC1`, the “% Inhibition” value is given as 1% and the Z score is on record as -0.19.

For the compound `CCc1ccccc1NC(=O)[C@@H]1CCN(S(C)(=O)=O)c2ccccc2O1`, the “% Inhibition” value is given as 3% and the Z score is reported as -0.42.

As to `CCCCC(=O)N1C[C@H](c2nc(-c3ccccc3)no2)C2(CCOCC2)C1`, the “% Inhibition” value is given as -2% and the Z score stood at 0.28.

Take `Cn1cnnc1CCNC(=O)[C@](C)(Nc1ccccc1)c1ccccc1`: the “% Inhibition” value is recorded as -23% and the Z score is given as 2.1.

As for `O=C1NC2(CCCC2)C(=O)N1CCCCN1C(=O)c2ccccc2C1=O`, the “% Inhibition” value is recorded as -10% and the Z score is given as 1.66.

For the compound `Clc1ccc(-c2cc(Cn3ccnn3)on2)cc1`, the “% Inhibition” value came out at 0% and the Z score stood at 0.06.

In the case of `Cc1ccc(S(=O)(=O)N2C3CCC2CC(=C2CC2)C3)cc1C`, the “% Inhibition” value was 1% and the Z score is listed as -0.26.

`CC(C)OCCS(=O)(=O)NC(C)(C)c1cccs1`: the “% Inhibition” value is on record as -8% and the Z score is given as 1.36.

For the compound `CN(C)S(=O)(=O)NCc1ccccc1`, the “% Inhibition” value came to 0% and the Z score is on record as -0.04.

Consider `CC1CCC2(CC1)NC(=O)N(C[C@H](O)COCc1ccccc1)C2=O` (some centres undefined), for which the “% Inhibition” value is recorded as -21% and the Z score came out at 1.91.

For `Cc1cc(C(=O)NCC[C@H](C)n2nc(C)cc2C)c2c(-c3ccc(F)cc3)noc2n1`, the “% Inhibition” value worked out at 37% and the Z score is on record as -4.22.

With `Cc1ccc(S(=O)(=O)NC[C@H]2CN(CC3CC3)CC23CCCCC3)c(C)c1`, the “% Inhibition” value is recorded as 9% and the Z score is on record as -1.38.

For `CCn1ncc(NC(=O)c2cc(C3CC3)nc3onc(-c4cccc(OC)c4)c23)c1C`, the “% Inhibition” value is listed as -3% and the Z score is on record as 0.46.

Turning to `Cc1n[nH]c(CNc2ncnc3c2ncn3C)c1C`, the “% Inhibition” value is given as -5% and the Z score turned out to be 0.92.

For the compound `Clc1ccc(-c2noc(-c3ccc4c(c3)OCCO4)n2)cc1`, the “% Inhibition” value is reported as -15% and the Z score turned out to be 1.75.

The values are drawn from ChEMBL document CHEMBL4888484, “Replenishing the malaria drug discovery pipeline: Screening and hit evaluation of the MMV Hit Generation Library 1 (HGL1) against asexual blood stage Plasmodium falciparum ,using a nano luciferase reporter read-out” (2022).
